Reference: paper PMC4336329 (PLoS ONE, 2015)
Screen size: about 310,000 compounds; about 14,000 (4.5%) showed an effect of 50% or more. The effect is printed as a negative number. This is one part of the list.

biological target: human ether-à-go-go-related gene (hERG) potassium channel (human, UniProt Q12809); test: primary screen, population patch clamp on CHO cells stably expressing hERG
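Further: peak tail current of the secondary pulse compared with the same well before compound.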

Chain of human ether-à-go-go-related gene (hERG) potassium channel (Q12809 whole entry, looked up): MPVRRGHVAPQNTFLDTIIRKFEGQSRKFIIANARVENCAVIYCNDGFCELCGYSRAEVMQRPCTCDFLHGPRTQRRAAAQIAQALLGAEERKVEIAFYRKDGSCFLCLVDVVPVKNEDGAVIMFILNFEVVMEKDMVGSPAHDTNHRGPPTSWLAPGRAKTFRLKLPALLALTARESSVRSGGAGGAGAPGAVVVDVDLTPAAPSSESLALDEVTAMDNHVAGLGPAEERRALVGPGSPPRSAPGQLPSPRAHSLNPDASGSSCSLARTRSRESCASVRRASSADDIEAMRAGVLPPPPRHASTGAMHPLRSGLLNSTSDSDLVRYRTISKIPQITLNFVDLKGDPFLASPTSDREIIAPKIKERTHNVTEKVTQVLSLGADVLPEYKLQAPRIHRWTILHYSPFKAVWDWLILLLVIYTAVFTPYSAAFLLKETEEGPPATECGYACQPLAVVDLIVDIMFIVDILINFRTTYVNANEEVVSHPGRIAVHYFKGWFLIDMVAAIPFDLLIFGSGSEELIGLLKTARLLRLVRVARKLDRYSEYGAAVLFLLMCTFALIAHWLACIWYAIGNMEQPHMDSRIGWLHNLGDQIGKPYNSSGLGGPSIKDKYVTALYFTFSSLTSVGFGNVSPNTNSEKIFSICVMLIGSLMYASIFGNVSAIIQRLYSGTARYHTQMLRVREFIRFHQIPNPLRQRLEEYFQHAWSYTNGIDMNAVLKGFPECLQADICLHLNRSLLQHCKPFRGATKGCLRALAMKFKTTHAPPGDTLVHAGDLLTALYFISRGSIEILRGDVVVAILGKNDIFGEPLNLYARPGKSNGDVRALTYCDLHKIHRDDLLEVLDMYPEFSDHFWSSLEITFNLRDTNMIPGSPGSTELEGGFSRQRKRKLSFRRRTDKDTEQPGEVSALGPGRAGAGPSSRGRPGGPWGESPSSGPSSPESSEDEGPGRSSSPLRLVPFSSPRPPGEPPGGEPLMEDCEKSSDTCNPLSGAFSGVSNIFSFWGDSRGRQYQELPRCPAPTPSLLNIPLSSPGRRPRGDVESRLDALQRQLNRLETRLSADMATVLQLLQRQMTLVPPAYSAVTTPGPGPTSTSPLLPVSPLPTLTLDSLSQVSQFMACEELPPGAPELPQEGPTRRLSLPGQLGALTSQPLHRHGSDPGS

Row | SMILES | hERG current change (%, negative = inhibition) at 10uM [%]
1 | O=C(Nc1ccc(F)cc1)N1CCCN(c2ccc(C(F)(F)F)cn2)CC1 | -47.9
2 | CN1CCN(C(=O)c2cc3nc(-c4ccccc4)cc(-c4ccccc4)n3n2)CC1 | -38.3
3 | COc1ccc(N(C(C)C(=O)NCCSCc2cccc(Cl)c2)S(C)(=O)=O)cc1 (centres unmarked) | -13.3
4 | CN(CCOc1ccccc1)C(=O)c1ccc(Cl)c(S(=O)(=O)N2CCCCC2)c1 | -67.4
5 | Cc1cccc2c(=O)cc(C)n(CC(=O)N3CCCCC3)c12 | 3.57
6 | O=C(CCNC(=O)c1ccc(Cl)cc1)NC1CCCCCC1 | -32.3
7 | NC(=O)CSc1nc2cccnc2n1-c1ccc(F)cc1 | 14
8 | CCOC(=O)C1CCCN(CC(=O)Nc2nccs2)C1 (centres unmarked) | -2.49
9 | CC1Cc2ccccc2N1C(=O)CSc1nnc2sc3ccccc3n12 (centres unmarked) | -10.9
10 | Cc1c([N+](=O)[O-])c(C(=O)N2CCCC2)nn1C | -3.4
11 | CCOC(=O)N1C(=O)c2cc(OC)ccc2S1(=O)=O | 13.1
12 | CCN(CC)CCCn1c2c(c(SCC(=O)Nc3cc(OC)cc(OC)c3)nc1=O)CCC2 | -64.4
13 | O=S(=O)(NCC(c1ccco1)N1CCN(c2ccc(F)cc2)CC1)c1ccc2c(c1)OCCO2 (centres unmarked) | 6.14
14 | COc1ccccc1Nc1nc(NCCO)nc(N)c1[N+](=O)[O-] | 2.88
15 | CCCc1cc(C(=O)Nc2cccc([N+](=O)[O-])c2)cs1 | -3.62
16 | Cn1c(=O)[nH]c(=O)c2c1nc(N/N=C/c1cccnc1)n2Cc1ccc(Cl)cc1 | 23.1
17 | CC(C)(CNC(=O)c1ccc([N+](=O)[O-])c(Cl)c1)CNC(=O)c1ccc([N+](=O)[O-])c(Cl)c1 | -19.1
18 | COCc1ccccc1C1=CC(=O)C[C@H](c2ccc(OC)cc2)C1 | -12.3
19 | O=C(Nc1nnc(CCN2CCCCC2)s1)c1cccc(Cl)c1 | -10.8
20 | CCc1ccc(OCC(=O)N2CCN=C2c2ccccc2)cc1 | -5.36
21 | Cn1cccc1CNC(=S)Nc1ccccc1F | 1.49
22 | NC(=O)COc1ccc(-c2noc(COc3ccccc3[N+](=O)[O-])n2)cc1 | 2.03
23 | CCOC(=O)c1[nH]c2ccc(OC)cc2c1NS(=O)(=O)c1ccc(Cl)s1 | 12.9

Row | SMILES | hERG current change (%, negative = inhibition) at 10uM [%]
24 | CCOCCCNc1ncnc2c1nc1n2CCCC1 | 17.2
25 | O=C(Nc1nc(-c2ccccc2)c(C(=O)c2ccccc2)s1)c1ccc(S(=O)(=O)N2CCCC2)cc1 | -3.8
26 | CCN(c1ccc(OC)cc1)S(=O)(=O)c1nnc(NC(=O)COc2ccccc2)s1 | 24.3
27 | CCCCN(C(=O)c1cccc(-n2cccc2)c1)c1c(N)n(CCCC)c(=O)[nH]c1=O | 7.97
28 | Cc1ccc(CNC(=O)Cn2c(=O)n(CC(=O)N3CCCCC3)c(=O)c3sccc32)cc1 | 14
29 | O=C(O)c1ccccc1N/N=C/C1=C(N2CCOCC2)C(=C\c2ccccc2)/CC1 | 18.9
30 | O=C(O)c1cc(-c2ccco2)nn1-c1cccc(Cl)c1 | 22.8
31 | S=C(NCCc1c[nH]c2ccccc12)NC1CCCCC1 | 5.36
32 | O=C(NCCCn1ccnc1)c1cc(-c2ccc(Cl)cc2)nc2ccccc12 | -68.8
33 | COc1cc(-c2nc3ccccc3c(=O)n2N)cc(OC)c1OC | 9.53
34 | Cn1c(SCC(=O)N/N=C/c2cccnc2)nnc1-c1ccccc1 | 17.4
35 | CCOC(=O)C1CCN(C(=O)c2oc3ccc4c(c3c2C)C(O)CC2(CCCCC2)O4)CC1 (centres unmarked) | 0.656
36 | COc1ccc(OCC(=O)N2c3ccccc3CCc3ccccc32)cc1 | -1.14
37 | O=C(N/N=C/c1ccc(-c2ccc([N+](=O)[O-])cc2)o1)C(O)c1ccccc1 (centres unmarked) | -41
38 | COc1ccc(Cc2nc(-c3ccc(Br)o3)no2)cc1OC | -23.2
39 | CCCN(CC(=O)Nc1ccccc1C)C(=O)COc1c(C)cccc1C | -4.72
40 | Cc1nn(Cc2ccc(Cl)cc2Cl)c(C)c1NC(=O)c1sc2ccccc2c1Cl | 5.36
41 | CC(C)(C)c1ccc(-n2ncc3c2CCCC3NC(=O)c2ccncc2)cc1 (centres unmarked) | -12.3
42 | O=C(Nc1ccc(Br)cc1)c1ccco1 | 0.736
43 | COCOc1ccc(C2CC(=O)c3c(OCOC)cc(OCOC)cc3O2)cc1 (centres unmarked) | -6.2
44 | COC(=O)c1n[nH]nc1-c1ccccc1 | -8.76
45 | Cc1cccc(CSc2nc3ccncc3n2CC(=O)Nc2cc(C)cc(C)c2)c1 | 9.09
46 | O=C1CCCCCCCCCC/C(=N\O)CCCO1 | 5.78

Row | SMILES | hERG current change (%, negative = inhibition) at 10uM [%]
47 | O=C1/C(=C\c2cc3c(cc2Cl)OCO3)N2CCC1CC2 | 4.47
48 | CC1(C)Oc2ccc3ccc(=O)oc3c2/C(=C/NC2CCCCC2)C1=O | -4.76
49 | O=C(Nc1ccc2c(c1)COC2=O)c1ccc(Cl)c(Cl)c1 | 24
50 | CCOC(=O)N1CCN(C(=O)c2cn(CC)c3ccc(S(=O)(=O)N(C)C4CCCCC4)cc3c2=O)CC1 | -17.3
51 | CC(C)c1ccc(OCC(O)CN2CCCC2)cc1.Cl (centres unmarked) | -11.1
52 | Cn1c(=O)n(CC(=O)O)c(=O)c2c1nc1n2CCS1 | -5.66
53 | O=c1[nH]c(C2CCN(S(=O)(=O)Cc3ccccc3)CC2)nc2c1nnn2Cc1cccc(Cl)c1 | -0.44
54 | COCCNC(=O)/C(C#N)=C/c1ccc(OCC(=O)NC2CCCCC2)cc1 | -0.168
55 | CN(C)C(=O)CCC(=O)N1CCCCC1C(=O)Nc1ccc(Oc2ccccc2F)cc1 (centres unmarked) | -43.9
56 | O=C(Cc1ccc([N+](=O)[O-])cc1)Nc1cccnc1 | -14.3
57 | CCCN(CC(=O)Nc1ccccc1OC)C(=O)c1cc(-c2ccccc2)nn1-c1ccccc1 | -2.6
58 | Cc1cccc(C(=O)Nc2scc(CC(C)C)c2C(=O)O)c1 | 25.6
59 | Cc1[nH]c2ccccc2c1CN1CCC(CO)(Cc2ccccc2)CC1 | -47.6
60 | CCOC(=O)C1CCCN(C(=O)c2cccc(S(=O)(=O)N3CC(C)OC(C)C3)c2)C1 (centres unmarked) | 5.34
61 | CC(C(N)=O)N1CC(c2ccc(Cl)cc2)CC1=O (centres unmarked) | -10.8
62 | CCc1ccc(NC(=O)COc2coc(CN3CCc4ccccc4C3)cc2=O)cc1 | -20.8
63 | Cc1cccc(C)c1NC(=O)c1ccc(-c2ccc(Cl)cc2Cl)o1 | -10.8
64 | CCCC(=O)N1CC(=O)Nc2ccc(F)cc2C1c1ccccc1 (centres unmarked) | -2.26
65 | CS(=O)(=O)Cc1ccc(C(=O)NC2CCCc3ccccc32)cc1 (centres unmarked) | 8.72
66 | Cc1cccc(N2CCN(C(=O)Cn3c(=O)[nH]c4ccsc4c3=O)CC2C)c1 (centres unmarked) | 12.7
67 | CCCCCOC(=O)NC1CCS(=O)(=O)C1 (centres unmarked) | 14
68 | Cc1ccccc1S(=O)(=O)Nc1nc2ccccc2nc1NCCO | 18.5
69 | CC(C)Cn1c(Cc2ccccc2)n[nH]c1=S | -3.27

Row | SMILES | hERG current change (%, negative = inhibition) at 10uM [%]
70 | CC(C)CNC(=S)N1CCN(c2nc3ccccc3s2)CC1 | 44.8
71 | Oc1ccc(Cl)cc1Cc1cc(Cl)ccc1O | 14.3
72 | NC1=NCC(O)=C1c1nc2ccccc2[nH]1 | 11.5
73 | Cc1cc(C)n(CCNC(=O)C2CCC(=O)N(CC3CCCCC3)C2)n1 (centres unmarked) | 17.5
74 | O=C(NC1CCCC1)c1ccc(COc2ccccc2Br)o1 | -41.4
75 | O=C(c1ccccn1)N1CCN(S(=O)(=O)c2cccc(Br)c2)CC1 | -6.02
76 | O=C(O)C(Cc1c[nH]c2ccccc12)NS(=O)(=O)c1cccc2nsnc12 (centres unmarked) | 2.69
77 | CC(CCc1ccccc1)NC(=O)CSc1ccccc1 (centres unmarked) | -2.1
78 | O=C(NNc1ccccc1Br)C(=O)n1ccc2ccccc21 | 2.04
79 | CC(C)(C)c1cc(Br)ccc1OCC(=O)Nc1ncn[nH]1 | 0.994
80 | Cc1ccccc1N1CCN(S(=O)(=O)c2ccc3oc(=O)ccc3c2)CC1 | -14.8
81 | O=C(NC1CCN(C(=O)N2c3ccccc3Sc3ccccc32)CC1)c1ccccc1Cl | -4.72
82 | Cc1cc(NC(=O)c2ccccc2O)nc(C)n1 | 13.5
83 | CCOC(=O)/C=C(/C)N1N=C(c2ccc(OC)cc2)CC1c1cccc([N+](=O)[O-])c1 (centres unmarked) | 13.5
84 | COc1ccc(NC(=S)Nc2ccc(N)c([N+](=O)[O-])c2)cc1 | 10.6
85 | CC(=O)Nc1ccc(S(=O)(=O)N2CCc3cc4c(cc3C2)OCCCO4)cc1 | 18.6
86 | COc1ccc(CNC(=O)CCC(=O)c2ccc(C)cc2)cc1OC | 14.9
87 | CCOc1ccccc1NC(=O)CNC(=O)Cc1ccccc1 | -3.12
88 | COc1ccccc1OCCNC(=O)c1ccco1 | 1.64
89 | CCOC(=O)c1c(C(=O)OCC)c(C)n(CCc2ccccc2)c1C | 4.09
